This is one part of the list.
Assays:
Test in all cases: glycan array binding signal (z-score within array); higher = stronger binding
Details in all cases: glycan notation: IUPAC condensed, linker removed
Gal6S(b1-4)Glc = target: Gal6S(b1-4)Glc
In short: (§1)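 Glycan array binding is given as a within-array Z-score, which can be read as non-binding when negative. The arrays, 3228 of them, came from the Consortium for Functional Glycomics database and were retained only where the protein sequence was available. Z-scores were averaged across arrays of the same protein sequence at different concentrations or buffers and across linkers.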

Gal6S(b1-4)Glc6S = target: Gal6S(b1-4)Glc6S
In short: as §1

Gal6S(b1-4)GlcNAc = target: Gal6S(b1-4)GlcNAc
In short: as §1

Gal6S(b1-4)GlcNAc6S = target: Gal6S(b1-4)GlcNAc6S
In short: as §1

GalNAc(a1-3)Gal = target: GalNAc(a1-3)Gal
In short: as §1

GalNAc(a1-3)GalNAc = target: GalNAc(a1-3)GalNAc
In short: as §1

[1] = target: GalNAc(a1-3)GalNAc(b1-3)Gal(a1-4)Gal(b1-4)Glc
In short: as §1

[2] = target: GalNAc(a1-3)GalNAc(b1-3)Gal(a1-4)Gal(b1-4)GlcNAc
In short: as §1

GalNAc(b1-3)Gal = target: GalNAc(b1-3)Gal
In short: as §1

[3] = target: GalNAc(b1-3)Gal(a1-4)Gal(b1-4)GlcNAc
In short: as §1

[4] = target: GalNAc(b1-3)Gal(a1-4)Gal(b1-4)GlcNAc(b1-3)Gal(b1-4)Glc
In short: as §1

[5] = target: GalNAc(b1-3)Gal(a1-6)Gal(b1-4)Glc
In short: as §1

GalNAc(b1-3)GalNAc = target: GalNAc(b1-3)GalNAc
In short: as §1

GalNAc(b1-3)GlcNAc = target: GalNAc(b1-3)GlcNAc
In short: as §1

GalNAc(b1-4)Gal(b1-4)Glc = target: GalNAc(b1-4)Gal(b1-4)Glc
In short: as §1

GalNAc(b1-4)GlcNAc = target: GalNAc(b1-4)GlcNAc
In short: as §1

[6] = target: GalNAc(b1-4)GlcNAc(b1-2)Man
In short: as §1

[7] = target: GalNAc(b1-4)GlcNAc(b1-2)Man(a1-3)[GalNAc(b1-4)GlcNAc(b1-2)Man(a1-6)]Man(b1-4)GlcNAc(b1-4)GlcNAc
In short: as §1

[8] = target: GalNAc(b1-4)GlcNAc(b1-3)GalNAc(b1-4)GlcNAc
In short: as §1

GalNAc(b1-4)GlcNAc6S = target: GalNAc(b1-4)GlcNAc6S
In short: as §1

GalNAc(b1-6)GalNAc = target: GalNAc(b1-6)GalNAc
In short: as §1

GalNAc3S(b1-4)GlcNAc = target: GalNAc3S(b1-4)GlcNAc
In short: as §1

GalNAc3S(b1-4)GlcNAc3S = target: GalNAc3S(b1-4)GlcNAc3S
In short: as §1

[9] = target: GalNAc3S(b1-4)[Fuc(a1-3)]GlcNAc
In short: as §1

GalNAc4S6S(b1-4)GlcNAc = target: GalNAc4S6S(b1-4)GlcNAc
In short: as §1

GalNAc6S(b1-4)GlcNAc = target: GalNAc6S(b1-4)GlcNAc
In short: as §1

Glc(a1-4)Glc = target: Glc(a1-4)Glc
In short: as §1

[10] = target: Glc(a1-4)Glc(a1-4)Glc(a1-4)Glc
In short: as §1

Glc(a1-6)Glc(a1-6)Glc = target: Glc(a1-6)Glc(a1-6)Glc
In short: as §1

[11] = target: Glc(a1-6)Glc(a1-6)Glc(a1-6)Glc
In short: as §1

Glc(b1-4)Glc = target: Glc(b1-4)Glc
In short: as §1

Glc(b1-6)Glc = target: Glc(b1-6)Glc
In short: as §1

GlcA(b1-3)Gal = target: GlcA(b1-3)Gal
In short: as §1

GlcA(b1-3)GlcNAc = target: GlcA(b1-3)GlcNAc
In short: as §1

GlcA(b1-6)Gal = target: GlcA(b1-6)Gal
In short: as §1

[12] = target: GlcA3S(b1-3)Gal(b1-4)GlcNAc(b1-2)Man
In short: as §1

[13] = target: GlcA3S(b1-3)Gal(b1-4)GlcNAc(b1-3)Gal(b1-4)Glc
In short: as §1

[14] = target: GlcNAc(a1-3)Gal(b1-4)GlcNAc
In short: as §1

[15] = target: GlcNAc(a1-4)Gal(b1-3)GlcNAc
In short: as §1

[16] = target: GlcNAc(a1-4)Gal(b1-4)GalNAc
In short: as §1

[17] = target: GlcNAc(a1-4)Gal(b1-4)GlcNAc
In short: as §1

[18] = target: GlcNAc(a1-4)Gal(b1-4)GlcNAc(b1-3)Gal(b1-4)Glc
In short: as §1

[19] = target: GlcNAc(a1-4)Gal(b1-4)GlcNAc(b1-3)Gal(b1-4)GlcNAc
In short: as §1

[20] = target: GlcNAc(a1-4)Gal(b1-4)GlcNAc(b1-3)Gal(b1-4)GlcNAc(b1-3)Gal(b1-4)GlcNAc
In short: as §1

[21] = target: GlcNAc(a1-4)Gal(b1-4)GlcNAc(b1-3)Gal(b1-4)[Fuc(a1-3)]GlcNAc(b1-3)Gal(b1-4)[Fuc(a1-3)]GlcNAc
In short: as §1

B1: Gal 3C (Homo sapiens), P17931 (protein)
chain: YGAPAGPLIVPYNLPLPGGVVPRMLITILGTVKPNANRIALDFQRGNDVAFHFNPRFNENNRRVIVCNTKLDNNWGREERQSVFPFESGKPFKIQVLVEPDHFKVAVNDAHLLQYNHRVKKLNEISKLGISGDIDLTSASYTMI
Question: How did the “glycan array binding signal (z-score)” value (Gal6S(b1-4)Glc) turn out when B1 was run?
Answer: The value was -0.279.

Question: What about the “glycan array binding signal (z-score)” value (Gal6S(b1-4)Glc6S) of the same binder?
Answer: Its value is -0.271.

Question: And the “glycan array binding signal (z-score)” value (Gal6S(b1-4)GlcNAc)?
Answer: Its value is -0.339.

Question: And the “glycan array binding signal (z-score)” value (Gal6S(b1-4)GlcNAc6S)?
Answer: Its value is -0.32.

Question: And the “glycan array binding signal (z-score)” value (GalNAc(a1-3)Gal)?
Answer: Its value is -0.331.

Question: And the “glycan array binding signal (z-score)” value (GalNAc(a1-3)GalNAc)?
Answer: Its value is -0.235.

Question: What about the “glycan array binding signal (z-score)” value [1] of the same binder?
Answer: Its value is -0.269.

Question: What about the “glycan array binding signal (z-score)” value [2] of the same binder?
Answer: Its value is -0.239.

Question: And the “glycan array binding signal (z-score)” value (GalNAc(b1-3)Gal)?
Answer: The value was -0.311.

Question: And the “glycan array binding signal (z-score)” value [3]?
Answer: Its value is -0.184.

Question: What about the “glycan array binding signal (z-score)” value [4] of the same binder?
Answer: The value was -0.275.

Question: What about the “glycan array binding signal (z-score)” value [5] of the same binder?
Answer: Its value is -0.332.

Question: And the “glycan array binding signal (z-score)” value (GalNAc(b1-3)GalNAc)?
Answer: The value was -0.191.

Question: What about the “glycan array binding signal (z-score)” value (GalNAc(b1-3)GlcNAc) of the same binder?
Answer: Its value is -0.319.

Question: And the “glycan array binding signal (z-score)” value (GalNAc(b1-4)Gal(b1-4)Glc)?
Answer: The value was -0.257.

Question: And the “glycan array binding signal (z-score)” value (GalNAc(b1-4)GlcNAc)?
Answer: The value was -0.217.

Question: And the “glycan array binding signal (z-score)” value [6]?
Answer: The value was -0.274.

Question: What about the “glycan array binding signal (z-score)” value [7] of the same binder?
Answer: Its value is -0.103.

Question: And the “glycan array binding signal (z-score)” value [8]?
Answer: The value was 1.03.

Question: And the “glycan array binding signal (z-score)” value (GalNAc(b1-4)GlcNAc6S)?
Answer: The value was -0.197.

Question: What about the “glycan array binding signal (z-score)” value (GalNAc(b1-6)GalNAc) of the same binder?
Answer: The value was -0.248.

Question: And the “glycan array binding signal (z-score)” value (GalNAc3S(b1-4)GlcNAc)?
Answer: The value was -0.294.

Question: And the “glycan array binding signal (z-score)” value (GalNAc3S(b1-4)GlcNAc3S)?
Answer: The value was -0.315.

Question: What about the “glycan array binding signal (z-score)” value [9] of the same binder?
Answer: The value was -0.329.

Question: And the “glycan array binding signal (z-score)” value (GalNAc4S6S(b1-4)GlcNAc)?
Answer: The value was -0.337.

Question: And the “glycan array binding signal (z-score)” value (GalNAc6S(b1-4)GlcNAc)?
Answer: The value was -0.364.

Question: What about the “glycan array binding signal (z-score)” value (Glc(a1-4)Glc) of the same binder?
Answer: Its value is -0.324.

Question: And the “glycan array binding signal (z-score)” value [10]?
Answer: The value was -0.255.

Question: And the “glycan array binding signal (z-score)” value (Glc(a1-6)Glc(a1-6)Glc)?
Answer: The value was -0.328.

Question: And the “glycan array binding signal (z-score)” value [11]?
Answer: The value was -0.248.

Question: And the “glycan array binding signal (z-score)” value (Glc(b1-4)Glc)?
Answer: The value was -0.331.

Question: And the “glycan array binding signal (z-score)” value (Glc(b1-6)Glc)?
Answer: Its value is -0.307.

Question: And the “glycan array binding signal (z-score)” value (GlcA(b1-3)Gal)?
Answer: Its value is -0.345.

Question: And the “glycan array binding signal (z-score)” value (GlcA(b1-3)GlcNAc)?
Answer: Its value is -0.291.

Question: What about the “glycan array binding signal (z-score)” value (GlcA(b1-6)Gal) of the same binder?
Answer: The value was -0.282.

Question: What about the “glycan array binding signal (z-score)” value [12] of the same binder?
Answer: Its value is -0.265.

Question: What about the “glycan array binding signal (z-score)” value [13] of the same binder?
Answer: The value was 0.119.

Question: What about the “glycan array binding signal (z-score)” value [14] of the same binder?
Answer: Its value is -0.317.

Question: And the “glycan array binding signal (z-score)” value [15]?
Answer: Its value is -0.261.

Question: What about the “glycan array binding signal (z-score)” value [16] of the same binder?
Answer: The value was -0.282.

Question: What about the “glycan array binding signal (z-score)” value [17] of the same binder?
Answer: Its value is -0.298.

Question: And the “glycan array binding signal (z-score)” value [18]?
Answer: The value was -0.215.

Question: What about the “glycan array binding signal (z-score)” value [19] of the same binder?
Answer: Its value is -0.2.

Question: And the “glycan array binding signal (z-score)” value [20]?
Answer: Its value is 1.33.

Question: And the “glycan array binding signal (z-score)” value [21]?
Answer: Its value is -0.219.

From the supplement of paper PMC8728848
